The list shows a part of the results. Single values are uncertain, as repeats are few or missing.
Experiments:
Assay in all cases: cell count relative to DMSO control; melanoma cells; higher = more viable cells
Details in all cases: library dose: low library concentration; 72 h
MZ2-MEL = system: MZ2-MEL
MeWo = system: MeWo
RPMI7951 = system: RPMI7951
RVH-421 = system: RVH-421
SkMel28 = system: SkMel28
SkMel2 = system: SkMel2
SkMel30 = system: SkMel30
UACC62 = system: UACC62
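Note: cell number obtained by counting DAPI-stained nuclei in high-throughput microscope images with image analysis software, screen run in 1,536-well plates.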

Row | SMILES | cell count (MZ2-MEL) | cell count (MeWo) | cell count (RPMI7951) | cell count (RVH-421) | cell count (SkMel28) | cell count (SkMel2) | cell count (SkMel30) | cell count (UACC62)
1 | CCCS(=O)(=O)Nc1ccc(F)c(C(=O)c2c[nH]c3ncc(Cl)cc23)c1F + Clc1ccc(Nc2nnc(Cc3ccncc3)c3ccccc23)cc1 [vatalanib] (first compound 0.08 µM, partner dose 2 µM) | 86.3% | 69% | 91.7% | 79.1% | 66.9% | 103% | 103% | 57.6%
2 | CN(c1ncccc1CNc1nc(Nc2ccc3c(c2)CC(=O)N3)ncc1C(F)(F)F)S(C)(=O)=O + Cc1cc(Nc2cc(N3CCN(C)CC3)nc(/C=C/c3ccccc3)n2)n[nH]1 [ENMD2076] (first compound 0.08 µM, partner dose 0.04 µM) | 92.7% | 91% | 71.6% | 87.9% | 98% | 105% | 105% | 97.8%
3 | CN(c1ncccc1CNc1nc(Nc2ccc3c(c2)CC(=O)N3)ncc1C(F)(F)F)S(C)(=O)=O + Nc1nc(F)nc2c1ncn2[C@@H]1O[C@H](CO)[C@@H](O)[C@@H]1O [fludarabine] (first compound 0.08 µM, partner dose 0.2 µM) | 70.2% | 35.9% | 70.1% | 82.4% | 66% | 3.59% | 15% | 76.1%
4 | CCCS(=O)(=O)Nc1ccc(F)c(C(=O)c2c[nH]c3ncc(Cl)cc23)c1F + Cc1nc(Nc2ncc(C(=O)Nc3c(C)cccc3Cl)s2)cc(N2CCN(CCO)CC2)n1 [dasatanib] (first compound 0.08 µM, partner dose 0.004 µM) | 70.4% | 102% | 75% | 78.8% | 74.1% | 88.3% | 103% | 73.4%
5 | CN(c1ncccc1CNc1nc(Nc2ccc3c(c2)CC(=O)N3)ncc1C(F)(F)F)S(C)(=O)=O + Nc1ccn([C@@H]2O[C@H](CO)[C@@H](O)C2(F)F)c(=O)n1 [gemcitabine] (first compound 0.08 µM, partner dose 0.0004 µM) | 84.6% | 90.1% | 80.3% | 108% | 73.4% | 93.6% | 103% | 86.5%
6 | CCCS(=O)(=O)Nc1ccc(F)c(C(=O)c2c[nH]c3ncc(Cl)cc23)c1F + Nc1nc(F)nc2c1ncn2[C@@H]1O[C@H](CO)[C@@H](O)[C@@H]1O [fludarabine] (first compound 0.08 µM, partner dose 0.2 µM) | 89.8% | 35.6% | 109% | 97% | 75.7% | 8.63% | 22% | 60.8%
7 | CN(c1ncccc1CNc1nc(Nc2ccc3c(c2)CC(=O)N3)ncc1C(F)(F)F)S(C)(=O)=O + CCCS(=O)(=O)Nc1ccc(F)c(C(=O)c2c[nH]c3ncc(Cl)cc23)c1F [PLX4720] (first compound 0.08 µM, partner dose 0.08 µM) | 91.1% | 106% | 69.9% | 86.5% | 96.6% | 81.9% | 97.6% | 86.4%
8 | CCCS(=O)(=O)Nc1ccc(F)c(C(=O)c2c[nH]c3ncc(Cl)cc23)c1F + Nc1ncn([C@H]2C[C@H](O)[C@@H](CO)O2)c(=O)n1 [decitabine] (first compound 0.08 µM, partner dose 0.1 µM) | 74.4% | 101% | 99.1% | 87.5% | 82.1% | 96.4% | 103% | 55.8%
9 | NC1(c2ccc(-c3nc4ccn5c(=O)[nH]nc5c4cc3-c3ccccc3)cc2)CCC1 + C#Cc1cccc(Nc2ncnc3cc(OCCOC)c(OCCOC)cc23)c1 [erlotinib] (first compound 0.4 µM, partner dose 0.8 µM) | 96.7% | 89.6% | 79.6% | 96.7% | 80.8% | 89.9% | 90.9% | 68.4%
10 | CCCS(=O)(=O)Nc1ccc(F)c(C(=O)c2c[nH]c3ncc(Cl)cc23)c1F + Cn1nnc2c(C(N)=O)ncn2c1=O [temozolomide] (first compound 0.08 µM, partner dose 2 µM) | 90.2% | 102% | 122% | 85.2% | 80.4% | 102% | 68% | 63.7%
11 | CCCS(=O)(=O)Nc1ccc(F)c(C(=O)c2c[nH]c3ncc(Cl)cc23)c1F + Cn1c(Nc2ccc(C(F)(F)F)cc2)nc2cc(Oc3ccnc(-c4ncc(C(F)(F)F)[nH]4)c3)ccc21 [CHIR265] (first compound 0.08 µM, partner dose 0.08 µM) | 83.5% | 83.8% | 67% | 64.2% | 57.1% | 84.3% | 83.5% | 47.3%
12 | NC1(c2ccc(-c3nc4ccn5c(=O)[nH]nc5c4cc3-c3ccccc3)cc2)CCC1 + O=C(O)c1ccc2c(c1)nc(Nc1cccc(Cl)c1)c1ccncc12 [CX4945] (first compound 0.4 µM, partner dose 0.4 µM) | 93.2% | 76.1% | 87.7% | 66.3% | 93.3% | 74.5% | 70.7% | 75.4%
13 | CN(c1ncccc1CNc1nc(Nc2ccc3c(c2)CC(=O)N3)ncc1C(F)(F)F)S(C)(=O)=O + Cn1c(Nc2ccc(C(F)(F)F)cc2)nc2cc(Oc3ccnc(-c4ncc(C(F)(F)F)[nH]4)c3)ccc21 [CHIR265] (first compound 0.08 µM, partner dose 0.08 µM) | 71.2% | 73.8% | 60.3% | 46.7% | 68.5% | 67.8% | 50.3% | 44.7%
14 | C=C(c1ccc(C(=O)O)cc1)c1cc2c(cc1C)C(C)(C)CCC2(C)C [Bexarotene] + Cn1nnc2c(C(N)=O)ncn2c1=O [temozolomide] (first compound 2 µM, partner dose 2 µM) | 98.9% | 80.5% | 68.2% | 82.8% | 49.5% | 83% | 98% | 71.4%
15 | C=C(c1ccc(C(=O)O)cc1)c1cc2c(cc1C)C(C)(C)CCC2(C)C [Bexarotene] + Nc1cccc2c1CN(C1CCC(=O)NC1=O)C2=O [lenalidomide] (first compound 2 µM, partner dose 1 µM) | 88.8% | 87% | 76.7% | 98.1% | 84.9% | 91.2% | 104% | 104%
16 | CCCS(=O)(=O)Nc1ccc(F)c(C(=O)c2c[nH]c3ncc(Cl)cc23)c1F + Nc1cccc2c1CN(C1CCC(=O)NC1=O)C2=O [lenalidomide] (first compound 0.08 µM, partner dose 1 µM) | 95.6% | 96.1% | 110% | 89.8% | 91.5% | 121% | 133% | 92.4%
17 | NC1(c2ccc(-c3nc4ccn5c(=O)[nH]nc5c4cc3-c3ccccc3)cc2)CCC1 + O=C(O)[C@@H]1[O][Sb](=[O])([O][Sb]2(=[O])[O][C@H]([C@H](O)CO)[C@H](O)[C@H](C(=O)O)[O]2)[O][C@H]([C@H](O)CO)[C@@H]1O [stibogluconate] (first compound 0.4 µM, partner dose 2 µM) | 99.1% | 88.9% | 91% | 80.6% | 86.1% | 96% | 93.5% | 92.2%
18 | NC1(c2ccc(-c3nc4ccn5c(=O)[nH]nc5c4cc3-c3ccccc3)cc2)CCC1 + C[C@@H](Oc1cc(-c2cnn(C3CCNCC3)c2)cnc1N)c1c(Cl)ccc(F)c1Cl [Crizotinib] (first compound 0.4 µM, partner dose 0.2 µM) | 95.7% | 80.2% | 85.2% | 74.1% | 61.2% | 90.1% | 88% | 68%
19 | CS(=O)(=O)c1ccc(C(=O)Nc2ccc(Cl)c(-c3ccccn3)c2)c(Cl)c1 [vismodegib] + Nc1ncn([C@H]2C[C@H](O)[C@@H](CO)O2)c(=O)n1 [decitabine] (first compound 1 µM, partner dose 0.1 µM) | 92% | 87.8% | 87.4% | 74.5% | 85.4% | 105% | 92.4% | 72.8%
20 | CCCS(=O)(=O)Nc1ccc(F)c(C(=O)c2c[nH]c3ncc(Cl)cc23)c1F + COCC[n+]1c2c(n(Cc3cnccn3)c1C)C(=O)c1ccccc1C2=O [YM155] (first compound 0.08 µM, partner dose 0.0004 µM) | 65.9% | 86.7% | 105% | 88.1% | 74.5% | 86.4% | 84.8% | 48.1%
21 | CCCS(=O)(=O)Nc1ccc(F)c(C(=O)c2c[nH]c3ncc(Cl)cc23)c1F + C=CCNC1=C2C[C@@H](C)C[C@H](OC)[C@H](O)[C@@H](C)/C=C(\C)[C@H](OC(N)=O)[C@@H](OC)/C=C\C=C(/C)C(=O)NC(=CC1=O)C2=O [Tanespimycin] (first compound 0.08 µM, partner dose 0.002 µM) | 81.7% | 83.6% | 80.9% | 95.1% | 67% | 91.9% | 76.2% | 87.6%
22 | CN(c1ncccc1CNc1nc(Nc2ccc3c(c2)CC(=O)N3)ncc1C(F)(F)F)S(C)(=O)=O + Nc1cccc2c1CN(C1CCC(=O)NC1=O)C2=O [lenalidomide] (first compound 0.08 µM, partner dose 1 µM) | 96% | 102% | 67.8% | 96.7% | 99.6% | 87.8% | 83% | 82.6%

Source: the supplement of paper PMC4604168 (melanoma cell lines)
